From patent US20200347115A1 (Hoffmann-La Roche, published 2020)

B1: FAP (4B9)-4-1BB ligand (71-248) contorsbody P1AA1235 (Fc fusion)
chain 1: REGPELSPDDPAGLLDLRQGMFAQLVAQNVLLIDGPLSWYSDPGLAGVSLTGGLSYKEDTKELVVAKAGVYYVFFQLELRRVVAGEGSGSVSLALHLQPLRSAAGAAALALTVDLPPASSEARNSAFGFQGRLLHLSAGQRLGVHLHTEARARHAWQLTQGATVLGLFRVTPEIPAGLGGGGSGGGGSDKTHTCPPCPAPEAAGGPSVFLFPPKPKDTLMISRTPEVTCVVVDVSHEDPEVKFNWYVDGVEVHNAKTKPREEQYNSTYRVVSVLTVLHQDWLNGKEYKCKVSNKALGAPIEKTISKAKGQPREPQVCTLPPSRDELTKNQVSLSCAVKGFYPSDIAVEWESNGQPENNYKTTPPVLDSDGSFFLVSKLTVDKSRWQQGNVFSCSVMHEALHNHYTQKSLSLSPGGGGGSGGGGSREGPELSPDDPAGLLDLRQGMFAQLVAQNVLLIDGPLSWYSDPGLAGVSLTGGLSYKEDTKELVVAKAGVYYVFFQLELRRVVAGEGSGSVSLALHLQPLRSAAGAAALALTVDLPPASSEARNSAFGFQGRLLHLSAGQRLGVHLHTEARARHAWQLTQGATVLGLFRVTPEIPAGL
chain 2: EVQLLESGGGLVQPGGSLRLSCAASGFTFSSYAMSWVRQAPGKGLEWVSAIIGSGASTYYADSVKGRFTISRDNSKNTLYLQMNSLRAEDTAVYYCAKGWFGGFNYWGQGTLVTVSSASTKGPSVFPLAPSSKSTSGGTAALGCLVKDYFPEPVTVSWNSGALTSGVHTFPAVLQSSGLYSLSSVVTVPSSSLGTQTYICNVNHKPSNTKVDKKV[omitted - human IgG1 Fc with changes]GGGGSGGGGSREGPELSPDDPAGLLDLRQGMFAQLVAQNVLLIDGPLSWYSDPGLAGVSLTGGLSYKEDTKELVVAKAGVYYVFFQLELRRVVAGEGSGSVSLALHLQPLRSAAGAAALALTVDLPPASSEARNSAFGFQGRLLHLSAGQRLGVHLHTEARARHAWQLTQGATVLGLFRVTPEIPAGL
light: EIVLTQSPGTLSLSPGERATLSCRASQSVTSSYLAWYQQKPGQAPRLLINVGSRRATGIPDRFSGSGSGTDFTLTISRLEPEDFAVYYCQQGIMLPPTFGQGTKVEIKRTVAAPSVFIFPPSDEQLKSGTASVVCLLNNFYPREAKVQWKVDNALQSGNSQESVTEQDSKDSTYSLSSTLTLSKADYEKHKVYACEVTHQGLSSPVTKSFNRGEC
B2: FAP (4B9)-4-1BB ligand (71-248) contorsbody P1AA1259 (Fc fusion)
chain 1: REGPELSPDDPAGLLDLRQGMFAQLVAQNVLLIDGPLSWYSDPGLAGVSLTGGLSYKEDTKELVVAKAGVYYVFFQLELRRVVAGEGSGSVSLALHLQPLRSAAGAAALALTVDLPPASSEARNSAFGFQGRLLHLSAGQRLGVHLHTEARARHAWQLTQGATVLGLFRVTPEIPAGLGGGGSGGGGSDKTHTCPPCPAPEAAGGPSVFLFPPKPKDTLMISRTPEVTCVVVDVSHEDPEVKFNWYVDGVEVHNAKTKPREEQYNSTYRVVSVLTVLHQDWLNGKEYKCKVSNKALGAPIEKTISKAKGQPREPQVCTLPPSRDELTKNQVSLSCAVKGFYPSDIAVEWESNGQPENNYKTTPPVLDSDGSFFLVSKLTVDKSRWQQGNVFSCSVMHEALHNHYTQKSLSLSPGGGGGSGGGGSSGGGGSREGPELSPDDPAGLLDLRQGMFAQLVAQNVLLIDGPLSWYSDPGLAGVSLTGGLSYKEDTKELVVAKAGVYYVFFQLELRRVVAGEGSGSVSLALHLQPLRSAAGAAALALTVDLPPASSEARNSAFGFQGRLLHLSAGQRLGVHLHTEARARHAWQLTQGATVLGLFRVTPEIPAGL
chain 2: EVQLLESGGGLVQPGGSLRLSCAASGFTFSSYAMSWVRQAPGKGLEWVSAIIGSGASTYYADSVKGRFTISRDNSKNTLYLQMNSLRAEDTAVYYCAKGWFGGFNYWGQGTLVTVSSASTKGPSVFPLAPSSKSTSGGTAALGCLVKDYFPEPVTVSWNSGALTSGVHTFPAVLQSSGLYSLSSVVTVPSSSLGTQTYICNVNHKPSNTKVDKKV[omitted - human IgG1 Fc with changes]GGGGSGGGGSREGPELSPDDPAGLLDLRQGMFAQLVAQNVLLIDGPLSWYSDPGLAGVSLTGGLSYKEDTKELVVAKAGVYYVFFQLELRRVVAGEGSGSVSLALHLQPLRSAAGAAALALTVDLPPASSEARNSAFGFQGRLLHLSAGQRLGVHLHTEARARHAWQLTQGATVLGLFRVTPEIPAGL
light: B1 light

Molecular target: human 4-1BB (CD137) (human, UniProt Q07011 24-255)
Assay: cell-based or functional assay
Set-up: AUC of NFκB-luciferase activation curve, HeLa-hu4-1BB-NFκB-luc clone 26, no FAP-expressing cells / AUC of NFκB-luciferase activation curve, HeLa-hu4-1BB-NFκB-luc clone 26, with WM-266-4 cells: unit not given beside the values

Row | Binder | AUC of NFκB-luciferase activation curve, HeLa-hu4-1BB-NFκB-luc clone 26, no FAP-expressing cells | AUC of NFκB-luciferase activation curve, HeLa-hu4-1BB-NFκB-luc clone 26, with NIH/3T3-huFAP clone 19 cells | AUC of NFκB-luciferase activation curve, HeLa-hu4-1BB-NFκB-luc clone 26, with WM-266-4 cells | EC50 of NFκB-luciferase activation, HeLa-hu4-1BB-NFκB-luc clone 26, no FAP-expressing cells [nM] | EC50 of NFκB-luciferase activation, HeLa-hu4-1BB-NFκB-luc clone 26, with NIH/3T3-huFAP clone 19 cells [nM] | EC50 of NFκB-luciferase activation, HeLa-hu4-1BB-NFκB-luc clone 26, with WM-266-4 cells [nM]
1 | B1 | 10300 | 41100 | 24600 | 0.84 | 0.06 | 0.13
2 | B2 | 10500 | 49900 | 27900 | 2.81 | 0.02 | 0.12
